PubChem BioAssay AID504832 (National Center for Advancing Translational Sciences (NCATS), 2011)
Among all 310,000 compounds or so, about 18,000 (5.8%) were called active. The shares of active, inactive and inconclusive entries below differ from those in the screen. The call rests on the fitted dose curve; in most records, active means well fitted inhibition curve with a large enough effect; inconclusive means small, poorly fitted or top-dose-only effect, or another doubt; inactive means no such curve, though single readings can be large or run the other way. No potency is given beside an inconclusive call; the fits are too rough.
Potency means the concentration at half of the fitted maximal effect; tags describe the fitted curve by direction and shape.

Test: Primary qHTS for delayed death inhibitors of the malarial parasite plastid, 48 hour incubation
Conditions: P. falciparum luciferase growth in erythrocytes; series mostly up to 28.7 µM
Procedure, shortened: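 Luminescence readout; reporter = integrated firefly luciferase in P. falciparum. RBC culture at 2% hematocrit, 0.1% parasitemia final, 37 C/5% CO2; decreased signal taken as growth inhibition.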
With COc1cccc(OC)c1C(=O)Nc1nc(-c2ccccc2)cs1 the Potency was inconclusive [inhibitor, single point]. For CCOc1cc(Br)cc(C(c2c(C(=O)O)[nH]c3ccccc23)c2c(C(=O)O)[nH]c3ccccc23)c1O, the Potency was inconclusive [inhibitor, partial curve, poor fit]. For CNC(=O)CSc1nnc(-c2ccco2)n1-c1ccc(C)cc1, the Potency was inconclusive [inhibitor, single point]. For C=C[C@@H]1c2ccccc2N(S(=O)(=O)c2ccc(C)cc2)[C@H](c2ccccc2)C1(C#N)C#N, the Potency was active: 3.7 µM. For COc1ccc(NC(=O)CNc2cc(S(=O)(=O)N3CCOCC3)ccc2NCC2CCCO2)cc1 (centres undefined), the Potency was “inactive”. For Oc1cccc(/C=N/N2CCN(C3c4ccccc4-c4ccccc43)CC2)c1, the Potency was “inactive”. With Cc1n[nH]c(C)c1CNCc1c(C(=O)N2CCCCCCC2)nc2ccc(Cl)cn12 the Potency was inconclusive [inhibitor, single point]. For COCCNC(=O)CN(c1cc(Cl)ccc1OC)S(=O)(=O)c1ccc(C)c([N+](=O)[O-])c1, the Potency was inconclusive [inhibitor, partial curve, poor fit]. In the case of Cc1cc(OCC(=O)NC(Cc2ccc(Cl)cc2)C(=O)O)c2c3c(c(=O)oc2c1)CCCC3 (centres undefined), the Potency is reported as inconclusive [inhibitor, single point]. With CCc1nc(Nc2cccc(O)c2)c2oc3ccccc3c2n1 the Potency was inconclusive [inhibitor, partial curve]. With CCC(C)(C)C(=O)Nc1ccc(OC)cc1[N+](=O)[O-] the Potency was “inactive”. In the case of COc1ccccc1-c1nnc(SCC(=O)c2c(N)n(C3CC3)c(=O)[nH]c2=O)n1C, the Potency is reported as inconclusive [inhibitor, single point]. For N=c1sccn1CC(=O)Nc1ccccc1Cc1ccccc1, the Potency was inconclusive [inhibitor, single point]. With CC(NC(=O)N1CCN(c2ccccc2F)CC1)c1ccc(F)c(F)c1 (centres undefined) the Potency was inconclusive [inhibitor, partial curve, poor fit]. For Clc1ccc(CN2CCCCCC2)cc1, the Potency was “inactive”. In the case of CCOC(=O)C1CCN(Cc2ccc(OCc3ccccc3)c(OC)c2)CC1, the Potency is reported as “inactive”. With CCCc1cc(=O)n2nc(N3CCC(C(=O)N4CCN(c5cccc(OC)c5)CC4)CC3)sc2n1 the Potency was inconclusive [inhibitor, partial curve]. With O=C(CCC(=O)N(c1ccc(F)cc1)C(C(=O)NC1CCCC1)c1ccncc1)Nc1cccnc1 (centres undefined) the Potency was “inactive”. For CCc1nc(NCC2CCCO2)c(C#N)c2c1COC(C)(C)C2 (centres undefined), the Potency was inconclusive [inhibitor, single point].
